In PMC4336329 (PLoS ONE, 2015):
The whole screen tested about 310,000 compounds, of which about 2,200 (0.71%) showed an effect of 50% or more. The effect is printed as a negative number. Some of the results follow.

Target: human ether-à-go-go-related gene (hERG) potassium channel (human, UniProt Q12809)
Assay: primary screen, population patch clamp on CHO cells stably expressing hERG

human ether-à-go-go-related gene (hERG) potassium channel, sequence (Q12809 whole entry, looked up): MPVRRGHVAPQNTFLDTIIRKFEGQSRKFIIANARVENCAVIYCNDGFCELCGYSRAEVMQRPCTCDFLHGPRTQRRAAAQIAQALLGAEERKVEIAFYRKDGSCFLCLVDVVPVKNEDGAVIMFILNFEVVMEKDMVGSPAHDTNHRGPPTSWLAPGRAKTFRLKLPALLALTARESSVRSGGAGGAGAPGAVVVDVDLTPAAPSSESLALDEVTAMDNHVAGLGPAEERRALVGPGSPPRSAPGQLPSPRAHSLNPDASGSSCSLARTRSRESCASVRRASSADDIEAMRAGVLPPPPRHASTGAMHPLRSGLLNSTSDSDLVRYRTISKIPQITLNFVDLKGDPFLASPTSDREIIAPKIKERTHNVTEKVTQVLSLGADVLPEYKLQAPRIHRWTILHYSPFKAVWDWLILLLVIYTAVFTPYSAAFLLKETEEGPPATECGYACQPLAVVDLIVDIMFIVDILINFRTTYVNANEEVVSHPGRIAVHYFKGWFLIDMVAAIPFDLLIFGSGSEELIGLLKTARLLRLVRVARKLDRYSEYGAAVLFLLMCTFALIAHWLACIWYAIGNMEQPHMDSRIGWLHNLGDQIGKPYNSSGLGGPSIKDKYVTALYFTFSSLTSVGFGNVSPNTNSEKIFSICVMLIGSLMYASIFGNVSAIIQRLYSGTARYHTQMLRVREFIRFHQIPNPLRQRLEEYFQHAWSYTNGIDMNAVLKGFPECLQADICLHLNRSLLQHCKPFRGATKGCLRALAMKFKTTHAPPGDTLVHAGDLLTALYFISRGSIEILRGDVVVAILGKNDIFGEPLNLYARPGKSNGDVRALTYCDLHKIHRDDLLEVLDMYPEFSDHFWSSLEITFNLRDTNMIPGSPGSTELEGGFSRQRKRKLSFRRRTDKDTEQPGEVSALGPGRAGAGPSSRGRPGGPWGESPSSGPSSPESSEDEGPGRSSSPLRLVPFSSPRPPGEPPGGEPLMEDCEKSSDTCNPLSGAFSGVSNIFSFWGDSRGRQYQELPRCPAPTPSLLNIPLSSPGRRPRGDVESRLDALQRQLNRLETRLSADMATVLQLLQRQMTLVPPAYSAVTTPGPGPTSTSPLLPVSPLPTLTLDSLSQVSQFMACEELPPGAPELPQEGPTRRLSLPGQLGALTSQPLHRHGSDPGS

Row | SMILES | hERG current change (%, negative = inhibition) at 1uM [%]
1 | COc1ccc(CNC(=O)C2CC(c3ccccc3C(F)(F)F)=NO2)cc1 (stereo not shown) | 1.74
2 | CCOC(=O)CC(NC(C)=O)c1ccc([N+](=O)[O-])cc1 (stereo not shown) | 8.5
3 | COc1ccc(OC)c(NC(=O)C2CCCN(S(=O)(=O)c3c(C)nn(C)c3C)C2)c1 (stereo not shown) | 15.9
4 | CCOc1ccc(NC(=O)CN(C)C(=O)C2CC(=O)N(c3ccc4c(c3)OCCO4)C2)cc1OCC (stereo not shown) | -4.28
5 | Cc1c(O)ccc(NC(=O)/C=C/c2ccccc2)c1C | 10.9
6 | O=C1C2Sc3[nH]c(=O)sc3C(c3ccccc3)C2C(=O)N1c1ccc(Cl)cc1 (stereo not shown) | 10.4
7 | Cc1cc(C)nc(Sc2ccc(C=O)cc2[N+](=O)[O-])n1 | 11.8
8 | CN(C)C(=O)N1CCN(C(=O)c2ccco2)CC1 | 4.67
9 | CCCCCCCC(=O)N/N=C/c1ccc([N+](=O)[O-])o1 | 5.65
10 | COc1ccc(C)cc1NC(=O)CSc1nc(SC)ns1 | 17.8
11 | CCC(C)NC(=O)C1CCN(S(=O)(=O)c2cc([N+](=O)[O-])ccc2Cl)CC1 (stereo not shown) | 12.9
12 | CSc1nc2sc3c(c2c(=O)n1CC(C)C)CC(C)(C)OC3 | 14.4
13 | CN(C)c1nc(N(C)C)nc(N(C#N)CN2C(=O)c3ccccc3S2(=O)=O)n1 | 2.13
14 | CS(=O)(=O)Cc1ccc(C(=O)N(CCc2ccccc2)Cc2ccccc2)cc1 | 0.11
15 | Cc1ccc(SCC(=O)NC(=O)Nc2ccc3c(c2)OCCO3)cc1C | -2.83
16 | COc1ccc(Oc2ncnc3sccc23)cc1 | 11.3
17 | Cc1ccccc1Sc1ncccc1[N+](=O)[O-] | 7.38
18 | CCN(CC)c1nc(C(N)=O)cc(-c2ccccc2)n1 | 13.4
19 | O=C1C=CC(=O)N1 | 14.7
20 | CCCCNC(=O)c1cc(-c2ccc(OC)c(OC)c2)on1 | 5.84
21 | COC(=O)CSC1=C(C#N)C(=O)NC2(CCCCC2)S1 | 15.7
22 | O=C(CSc1nnc(-c2ccc(Cl)cc2)o1)N1CCOCC1 | 7.55

Row | SMILES | hERG current change (%, negative = inhibition) at 1uM [%]
23 | O=C(c1ccc(NS(=O)(=O)c2ccc(F)cc2)cc1)N1CCCCC1 | 13.1
24 | O=[N+]([O-])c1cc2c(c(CSc3nnnn3-c3ccc(O)cc3)c1)OCOC2 | 1.25
25 | CN(CC(=O)NCc1ccc(F)cc1)Cc1cccc(Cl)c1 | 15.7
26 | CCOC(=O)c1ccccc1Nc1cc(C)nc2nc(C)nn12 | 2.17
27 | CC(C)[C@@H](C(=O)N1CCCC1)N1C(=O)N2CCc3c([nH]c4ccccc34)[C@@]2(C)C1=O | 5.78
28 | CC(C#N)(NC(=O)CN1CCN(S(=O)(=O)c2ccccc2Cl)CC1)C1CC1 (stereo not shown) | 13.2
29 | CCOC(=O)c1c(NC(=O)COC(=O)c2ncc(Cl)c(Cl)c2Cl)sc(C(=O)N(C)C)c1C | 10.5
30 | COc1ccc(S(=O)(=O)Cc2ccc(C(=O)NCCc3cc(OC)ccc3OC)o2)cc1 | 6.85
31 | c1ccc(Oc2cc(-c3ccccc3)nc(-c3ccccc3)n2)cc1 | -0.445
32 | Cc1ccc(Cn2ccc(NC(=O)c3noc4c3CCCCC4)n2)cc1 | 9.2
33 | CC(C)Sc1nc2ncnc(N)c2[nH]1 | 19.9
34 | CCOC(=O)c1ccccc1NC(=O)c1ccc2c(=O)n3c(nc2c1)CCCCC3 | -1.04
35 | CCn1c(Cc2ccccc2)nnc1SCC(=O)Nc1ccc(N)cc1 | 11
36 | N#C/C(=C(/O)CN1CCCC1)c1nc(-c2ccccc2)cs1 | 7.19
37 | COc1ccc([C@H]2CC(=O)c3c(O)cc(O)cc3O2)cc1O | 13.8
38 | Cc1noc(C)c1COc1ccc(C(=O)OCC(=O)Nc2ccc3c(c2)OCO3)cc1 | 9.19
39 | Cc1ccc(C(=O)O/N=C(\N)c2cccnc2)cc1[N+](=O)[O-] | 3.56
40 | COc1ccc(Cl)cc1N1CC(c2nc3ccccc3[nH]2)CC1=O (stereo not shown) | -20.9
41 | CN(C)c1ccc(NC(=O)c2cccc(N3C(=O)C4C5C=CC(C5)C4C3=O)c2)cc1 (stereo not shown) | 15.7
42 | O=C(COC(=O)/C=C/c1cccs1)Nc1cccc(S(=O)(=O)N2CCCC2)c1 | 9.42
43 | Cc1ccc(C(=O)COC(=O)c2ccc(Cl)c(N)c2)s1 | 14.7
44 | Cl.O=C(NCCCn1ccnc1)c1ccc(S(=O)(=O)N2CCOCC2)cc1 | 10.4

Row | SMILES | hERG current change (%, negative = inhibition) at 1uM [%]
45 | O=Cc1c[nH]c2ccc(OCc3ccccc3)cc12 | 14
46 | COC(=O)C1=C(c2cc3ccccc3o2)C[C@@H]2CC[C@H]1N2C(=O)NCCNC(C)=O | 11.2
47 | Cc1ccc(S(=O)(=O)CC(=O)NC2CC2)cc1 | 6.09
48 | O=C1OC(/C(=C\NCc2ccccc2)[N+](=O)[O-])c2ccccc21 (stereo not shown) | 6.65
49 | CCc1noc(C)c1C(=O)NC1CC(C)(C)Cc2c1cnn2-c1ccccc1 (stereo not shown) | 8.54
50 | Nc1ccc(C(=O)NC2CCSc3ccccc32)cc1[N+](=O)[O-] (stereo not shown) | -0.154
51 | O=C(Cn1c(-c2cncs2)nc2ccccc21)NCc1ccccc1 | 16
52 | C=CCNc1oc(-c2ccc(OCC)cc2)nc1C#N | -8.94
53 | CCOc1ccc2[nH]c(=O)c(CN(Cc3ccco3)C(CC)c3nnnn3Cc3ccccc3)cc2c1 (stereo not shown) | -3.8
54 | COCCNc1c(-c2ccc(O)cc2)nc2ccc(Cl)cn12 | -0.888
55 | COC(=O)c1ccc(Sc2ccccc2NS(=O)(=O)c2ccc(NC(C)=O)cc2)nc1 | -1.49
56 | N#CCCn1cc(C(CC(=O)c2ccc(Br)cc2)C(=O)O)c2ccccc21 (stereo not shown) | 10.7
57 | CC1=NN(c2ccc(S(=O)(=O)O)cc2C)C(=O)C1 | 26.3
58 | COc1ccccc1OCC(=O)Nc1ccc(S(=O)(=O)N2CCCCCC2)cc1 | 7.07
59 | COCCn1c(SCC(=O)N2CCCc3ccccc32)nc2ccccc2c1=O | -22.5
60 | CCNC(=O)C12CCC(C)(c3nc4cc(C)c(C)cc4nc31)C2(C)C (stereo not shown) | 2.34
61 | O=C(O)CN1C(=O)/C(=C/c2ccccc2Br)Oc2ccccc21 | 3.25
62 | COc1cc(S(=O)(=O)N(Cc2cccs2)CC2CCCO2)ccc1-n1cnnn1 (stereo not shown) | -5.93
63 | Cc1ccc(S(=O)(=O)NCC2(c3ccccc3)CCOCC2)cc1 | 8.36
64 | CCCCC(CC)C(=O)Oc1ccc(O)c(C(C)(C)C)c1 (stereo not shown) | 8.9
65 | COc1cc(/C=C/c2onc(C)c2[N+](=O)[O-])cc(OC)c1OC | 7.57
66 | CC(=O)c1ccc(OCC(O)CN2CCN(Cc3ccc4c(c3)OCO4)CC2)cc1.Cl (stereo not shown) | -22.3

Row | SMILES | hERG current change (%, negative = inhibition) at 1uM [%]
67 | Cc1cccc(C)c1NC(=O)CN1CCNCC1 | 5.44
68 | COc1ccc(OC)c2c(C)cc(N3CCN(C(=O)c4ccc(C)cc4)CC3)nc12 | 6.17
69 | COC(=O)/N=C/c1c(NCc2ccccc2)nc2c(C)cccn2c1=O | 13.5
70 | COc1ccc(C(=O)OC(C)C(=O)NC(C)CCc2ccccc2)c(OC)c1 (stereo not shown) | 8
71 | Cc1cc(OC(C)C(=O)N2C[C@H]3C[C@@H](C2)c2cccc(=O)n2C3)c2c(C)c(C)c(=O)oc2c1 (stereo partly shown) | 11.9
72 | CCn1cc(C2=NOC(C(=O)Nc3ccccc3C(=O)OC)C2)c(C)n1 (stereo not shown) | -4.35
73 | CCN(CC)S(=O)(=O)c1cc(C(=O)Nc2cc(Cl)ccc2N2CCN(C)CC2)ccc1Cl | -3.74
74 | CCOc1ccc(OCC)c(NC(=O)C2CCCN(S(=O)(=O)c3c(C)n[nH]c3C)C2)c1 (stereo not shown) | 10.1
75 | Nn1c(SCC(=O)Nc2ccc(S(N)(=O)=O)cc2)nnc1C(F)(F)F | 2.46
76 | COc1ccc(C(=O)Nc2ccc(C(=O)N3CCOCC3)cc2)cc1OC | 11.3
77 | Cn1nnnc1SCC(=O)Nc1ccc(Oc2ccc(Cl)cc2)cc1 | 9.74
78 | O=[N+]([O-])c1ccc(/C=N/Nc2nc(N3CCCCCC3)nc(N3CCCCCC3)n2)o1 | 7.97
79 | CC1CCCN(S(=O)(=O)c2ccc3c(c2)c(=O)nc2ccccn23)C1 (stereo not shown) | 18.1
80 | CCC(=O)N1CCN(c2ccccc2NC(=O)COc2cccc(C)c2C)CC1 | 11.8
81 | CC(=O)Oc1ccc(C(=O)Nc2ccccc2C(=O)N2CCCC2)cc1 | 17.8
82 | CCCOc1ccccc1-c1nc2c([nH]1)c(=O)[nH]c(=O)n2C | 5.15
83 | CC1CN(C(=O)CCC(=O)NCc2ccc(Cl)cc2)c2ccccc2O1 (stereo not shown) | -9.24
84 | CC1(C)CC(=O)c2cnc(N3CCc4ccccc43)nc2C1 | 9.33
85 | CCOc1ccc(S(=O)(=O)Nc2cccc(C(=O)NCCCn3ccnc3)c2)cc1 | 14.8
86 | O=C(NCc1ccco1)c1n[nH]c(=O)c2ccccc12 | 11.8
87 | Cc1nc(CCNC(=O)Cc2ccc(F)cc2)cs1 | 17.5
88 | CC1CCN(C(=O)c2cc3ccccc3c(=O)o2)CC1 | 7.65
